Where “and” joins values, the source holds several entries; their conditions need not be identical. Equal values may be shown once. Over roughly 5,300 compounds, “PER2::LUC luminescence relative to vehicle control” has its median near 0.96; the highest 2% begin near 1.3. Some of the results follow.
Test system: mPer2Luc MEF
Test: PER2::LUC luminescence relative to vehicle control (fold of vehicle); higher = higher PER2::LUC reporter signal
Conditions: 10 µM
Summary of the method: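 In 384-well plates, ~3000 mPer2Luc reporter mouse embryonic fibroblasts per well were cultured in DMEM with 10% FBS at 37 °C and 5% CO2 for 48 h before compounds from commercial libraries were added at 10 μM. ONE-Glo luciferase readings were taken 24 h and 30 h after treatment. Each value is PER2::LUC luminescence given as fold of vehicle control.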

Compound	PER2::LUC luminescence (time after treatment 24 h)	PER2::LUC luminescence (time after treatment 30 h)
O=c1[nH]c(=S)[nH]c(-c2ccccc2)c1Cc1c(O)ccc2ccccc12	1.16 and 1.02	1.18 and 0.86
CCN(CC)C(=O)c1cccc(C)c1	0.911 and 0.926	0.906 and 0.866
CCCN(CCC)S(=O)(=O)c1ccc(C(=O)O)cc1	0.832	0.861
COc1ccc(C(=C2C(=O)Nc3ccccc32)c2ccc(OC)cc2)cc1	1.05	1.07
CC(C)(C)n1nc(Cc2cccc3ccccc23)c2c(N)ncnc21	0.824	0.874
CCNC(=O)Nc1ccc(-c2nc3c(c(N4CCOC[C@@H]4C)n2)CCN(C2COC2)C3)cc1	0.248	0.271
CC(=O)[C@H]1CC[C@H]2[C@@H]3CCC4=CC(=O)CC[C@]4(C)[C@H]3CC[C@]12C	0.59	0.86
Cn1cc(CNCC2CCN(c3ncc(C(=O)NO)cn3)CC2)c2ccccc21	0.381	0.39
CN(C)CC/C=C1/c2ccccc2Sc2ccc(Cl)cc21	0.996 and 0.712	0.932 and 0.61
CC(=O)O[C@H]1C[C@@H](OC(C)=O)C(C)(C)[C@@H]2C[C@@H](OC(C)=O)[C@]3(C)[C@H](CC[C@@]4(C)[C@H](c5ccoc5)OC(=O)[C@H]5O[C@@]534)[C@@]12C	0.727	0.817
C[C@@H](O)CCCCn1c(=O)c2c(ncn2C)n(C)c1=O	0.991	0.943
OC(CN1CCC(Cc2ccc(F)cc2)CC1)c1ccc(Cl)cc1 (configuration not stated)	0.902	0.912
O=C[C@H](O)[C@H]1OC(=O)[C@@H](O)[C@H]1O	1.14	0.922
Cn1c(COc2ccc(CC3SC(=O)NC3=O)cc2)nc2ccccc2c1=O (configuration not stated)	1.03	1.07
CN(C)CCOC(c1ccccc1)c1ccccc1	0.783	0.862
CN1CCN(C(=O)C2C(C(=O)O)[C@H]3CC[C@@H]2O3)CC1 (some centres not stated)	0.665	0.814
O=C(O)CCCCC(=O)O	1.03	1.03
CCOC(=O)CCNc1cc(N2CCc3ccccc3CC2)nc(-c2ccccn2)n1	1.07	1.03
COc1ccc2[nH]c([S+]([O-])Cc3ncc(C)c(OC)c3C)nc2n1 (configuration not stated)	0.776	1.01
O=S(=O)(Nc1ccc(C(O)(C(F)(F)F)C(F)(F)F)cc1)c1cccs1	0.923	0.893
COc1ccccc1C(=O)Nc1cc2c(cc1N1CCCC1)n(C)c(=O)n2C	0.799	0.715

Compound	PER2::LUC luminescence (time after treatment 24 h)	PER2::LUC luminescence (time after treatment 30 h)
CC(=O)C1=C(O)C=C2Oc3c(C(C)=O)c(O)c(C)c(O)c3[C@@]2(C)C1=O	0.981	0.95
C=C[C@]1(C)C[C@@H](OC(=O)CS[C@@H]2C[C@H]3CC[C@@H](C2)N3C)[C@]2(C)[C@H](C)CC[C@]3(CCC(=O)[C@H]32)[C@@H](C)[C@@H]1O	0.651	0.685
O=c1cc(-c2ccccc2F)[nH]c2cc3c(cc12)OCO3	0.9	0.871
Oc1ncnc2[nH]ncc12	1.07	1.06
O=[N+]([O-])c1ccc(-c2nc(-c3ccc(F)cc3)c(-c3ccncc3)[nH]2)cc1	0.945	1.06
S=C(S)OC1CC2CC1C1CCCC21 (configuration not stated)	0.932	0.997
CCOC(=O)C1=C[C@@H](OC(CC)CC)[C@H](NC(C)=O)[C@@H](N)C1	0.884	0.941
CNCCCC1c2ccccc2C=Cc2ccccc21	0.66 and 0.727	0.64 and 0.521
CC1(C)C(=O)C=C[C@]2(C)[C@H]3CC[C@@]4(C)[C@H](c5ccoc5)OC(=O)[C@H]5O[C@]54[C@]3(C)C(=O)C[C@@H]12	0.881	1.07
N#Cc1ccc(-c2cnc3[nH]cc(NC(=O)c4cccnc4)c3c2)cc1	0.79	0.81
C=CC(=O)Nc1cccc(C)c1Nc1ncc2cc(-c3c(Cl)c(OC)cc(OC)c3Cl)ccc2n1	0.603	0.512
C[C@]12CCC(=O)C=C1CC[C@@H]1[C@@H]2[C@@H](O)C[C@@]2(C)[C@H]1CC[C@]2(O)C(=O)CO	0.582	0.964
CCCc1cc(=O)[nH]c(=S)[nH]1	0.952	0.826
COc1ccc(CCN(C)CCCC(C#N)(c2ccc(OC)c(OC)c2)C(C)C)cc1OC (configuration not stated)	0.949 and 0.749	0.869 and 0.745
Cc1onc(-c2ccccc2)c1-c1ccc(S(N)(=O)=O)cc1	0.782	0.781
O=C(Nc1ccccc1)c1cc([N+](=O)[O-])ccc1Cl	0.83	0.859
C[N+]1(CCCCC[N+]2(C)CCCC2)CCCC1	1.1 and 0.745	1.02 and 0.836
C[C@H](NC(=O)C(C)(C)Oc1ccc(C(F)(F)F)cn1)[C@@H](Cc1ccc(Cl)cc1)c1cccc(C#N)c1	0.845	0.872
CC1=C(CCC(=O)O)c2cc3[nH]c(cc4nc(cc5[nH]c(cc1n2)c(C)c5C(C)O)C(C)=C4C(C)O)c(C)c3CCC(=O)O (configuration not stated)	1	0.878
CO/N=C(\C(=O)N[C@@H]1C(=O)N2C(C(=O)OCOC(=O)C(C)(C)C)=C(/C=C\c3scnc3C)CS[C@H]12)c1csc(N)n1	0.978 and 1.02	1.01 and 0.913
Cc1sc(N)c(C(=O)c2cccc(C(F)(F)F)c2)c1C	1.02	0.959

Compound	PER2::LUC luminescence (time after treatment 24 h)	PER2::LUC luminescence (time after treatment 30 h)
c1ccc2c(Cc3c[nH]c4ccccc34)c[nH]c2c1	0.956 and 0.816	1.02 and 0.84
CN(N=O)C(=O)N[C@H]1C(O)O[C@H](CO)[C@@H](O)[C@@H]1O (mixture of isomers)	1.03	0.88
CCCCC(=O)O[C@H]1CC[C@H]2[C@@H]3CCc4cc(O)ccc4[C@H]3CC[C@]12C	1.15 and 1.11	1.09 and 1.07
N#Cc1c(O)c2c(-c3ccc(-c4ccccc4O)cc3)csc2[nH]c1=O	1.04 and 1.02	1.03 and 1
CC(C)n1cnc2c(NCc3ccccc3)nc(NCCCO)nc21	0.486	0.877
COc1ccc(/C=C/C(=O)O)cc1OC	0.982	0.92
NC(N)=Nc1nc(CSCCN/C=N/S(=O)(=O)c2ccc(Br)cc2)cs1	0.985	0.971
CC(=O)Nc1cc2ccccc2oc1=O	1.01	1.11
Cn1c(NCCN(CCO)CCCc2ccc([N+](=O)[O-])cc2)cc(=O)n(C)c1=O	0.973	0.998
N=C(N)SCCc1ccc(OCc2ccc([N+](=O)[O-])cc2)cc1	1.13	0.973
Cc1[nH]c2ccccc2c1CCNC(=O)c1cccs1	0.818	0.862
CC(C)CCC[C@@H](C)[C@H]1CC[C@H]2[C@@H]3CCC4=CC(=NO)CC[C@]4(C)[C@H]3CC[C@]12C	1.1	1.01
O=c1[nH]ccc2cc(OC3CCNCC3)ccc12	0.7	0.768
O=C(OC[C@H]1O[C@@H](OC(=O)c2cc(O)c(O)c(OC(=O)c3cc(O)c(O)c(O)c3)c2)[C@H](OC(=O)c2cc(O)c(O)c(OC(=O)c3cc(O)c(O)c(O)c3)c2)[C@@H](OC(=O)c2cc(O)c(O)c(OC(=O)c3cc(O)c(O)c(O)c3)c2)[C@@H]1OC(=O)c1cc(O)c(O)c(OC(=O)c2cc(O)c(O)c(O)c2)c1)c1cc(O)c(O)c(OC(=O)c2cc(O)c(O)c(O)c2)c1	0.819 and 0.4	0.789 and 0.554
N=C(N)c1ccc(OCCCCCOc2ccc(C(=N)N)cc2)cc1	0.8 and 0.821	0.848 and 0.8
Oc1ccc([C@H]2COc3cc(O)ccc3C2)cc1	1.09	1.25
Fc1ccc(C(c2ccc(F)cc2)N2CCN(C/C=C/c3ccccc3)CC2)cc1	0.842 and 0.7	0.666 and 0.796
CN1CCc2c(c3ccccc3n2Cc2ccccc2)C1	0.75 and 0.664	0.663 and 0.737
COc1ccc2oc(-c3ccccc3OC)cc(=O)c2c1	1.38	1.61
Cc1ccc(Nc2c(F)cccc2Cl)c(CC(=O)O)c1	1.09	1.21
COc1cccc2c1[C@@H]1CN(CCCCn3c(=O)[nH]c4c(sc5ncc(-c6ccccc6)nc54)c3=O)C[C@@H]1CO2	0.746	0.635

Compound	PER2::LUC luminescence (time after treatment 24 h)	PER2::LUC luminescence (time after treatment 30 h)
O=C([C@@H](Cc1cccc(C(F)(F)F)c1)NS(=O)(=O)c1cc(F)c2c(c1)CCNC2)N1CCCC1	0.77	0.798
CC1(C)CO[C@@H](CC(=O)O)CN1	0.97	0.984
N=C(N)NC(=N)Nc1ccccc1	1.04	0.931
Nc1nc(Cl)nc2c1ncn2[C@H]1C[C@H](O)[C@@H](CO)O1	0.628 and 0.512	0.458 and 0.375
CN[C@@H]1[C@H](O[C@H]2[C@H](O[C@H]3[C@H](O)[C@@H](O)[C@H](N=C(N)N)[C@@H](O)[C@@H]3N=C(N)N)O[C@@H](C)[C@]2(O)C=O)O[C@@H](CO)[C@H](O)[C@H]1O	1.17	1.02
Cc1ccc2c(Br)cc(Br)c(OC(=O)c3ccccc3)c2n1	0.346	0.49
Cc1cccc(C(=O)O)c1O	1.05	1.03
O=C(C=Cc1ccccc1)NC(NC(=S)Nc1ccc(Cl)cc1)C(Cl)(Cl)Cl (configuration not stated)	0.764	0.752
COc1cc(-c2coc3cc(OCc4ccccc4)c(OC)c(O)c3c2=O)cc(OCc2ccccc2)c1OC	0.972	0.937
OCCOCCN1CCN(C2=Nc3ccccc3Sc3ccccc32)CC1	1.02 and 0.943 and 0.96	0.895 and 0.94 and 0.887
Cc1cc(O)c(C)c(O)c1C(=O)O	0.96	0.947
COc1cc(-c2oc3cc(O)ccc3c(=O)c2O)ccc1O	1.13	1.2
O=C(Nc1cccc(C(F)(F)F)c1)Nc1cc(Cl)ccc1C(=O)O	1.07	1
Cc1nc(Nc2cnn(C3CCNCC3)c2)nc2c1N(C)C(=O)c1cc3ccccc3cc1N2C	0.398	0.47
C[C@H](NC(=O)CNC(=O)[C@@H](NC(=O)[C@H](Cc1ccccc1)NC(=O)CNC(=O)CNC(=O)[C@@H](N)Cc1ccccc1)[C@@H](C)O)C(=O)N[C@@H](CCCN=C(N)N)C(=O)N[C@@H](CCCCN)C(=O)N[C@@H](CO)C(=O)N[C@@H](C)C(=O)N[C@@H](CCCN=C(N)N)C(=O)N[C@@H](CCCCN)C(N)=O	1.02	0.922
CC1(C)S[C@@H]2[C@H](NC(=O)[C@H](N)c3ccc(O)cc3)C(=O)N2[C@H]1C(=O)O	1.13 and 0.881 and 1.16	0.997 and 0.986 and 1.12
Cn1cnc2c(NCc3ccccc3)nc(NCCO)nc21	1.18	1.08
Cc1cc(C(=O)NOCCO)c(Nc2ccc(I)cc2F)n(C)c1=O	0.337	0.248
